Laboratory results: PubChem BioAssay AID1963576 (National Center for Advancing Translational Sciences (NCATS), 2024)
In all, about 46,000 compounds went through this assay and about 60 (0.1%) were called active. Inconclusive results (about 3%) are left out. Calls follow the shape of the dose curve; as a rule, active = well fitted inhibition curve with a large enough effect; inconclusive = small, poorly fitted or top-dose-only effect; inactive = no such curve, though single readings can be large or run the other way. This is one part of the list.

Test: Primary qHTS assay for Inhibitors of ovarian cancer metastasis using an organotypic tumor microenvironment (TME) model. Also: nearly all actives have a fitted effect of over 65% in size.
Conditions: SKOV3ip1-GFP adhesion/invasion on 3D omental model, fluorescence; series mostly up to 45.8 µM; activity change, negative = inhibition: at the top concentration
Text: PI: Ernst Lengyel MD., Ph.D. Department of Obstetrics and Gynecology, Section of Gynecologic Oncology University of Chicago Medicine, Chicago, Illinois. The tumor microenvironment (TME) is a key determinant of metastatic efficiency. We performed a quantitative high-throughput screen (qHTS) of diverse medicinal chemistry tractable scaffolds (44,420 compounds) and pharmacologically active small molecules (386 compounds) using a layered organotypic, robust assay representing the ovarian cancer metastatic TME. This 3D model contains primary human mesothelial cells, fibroblasts, and extracellular matrix, to which fluorescently labeled ovarian cancer cells are added. Initially, 100 compounds inhibiting ovarian cancer adhesion/invasion to the 3D model in a dose-dependent manner were identified. Of those, eight compounds were confirmed active in five high-grade serous ovarian cancer cell lines and were further validated in secondary in vitro and in vivo biological assays. […] Specifically, NCGC00117362 and PP-121 inhibited ovarian cancer adhesion, invasion, and proliferation, whereas milciclib inhibited ovarian cancer invasion and proliferation. […] To evaluate the clinical potential of NCGC00117362, structure - activity relationship studies were performed. […] The three compounds identified have promise as therapeutics for prevention and treatment of ovarian cancer metastasis.
PROTOCOL TABLE (as described by Inglese J, Shamu CE and Guy RK. 2007) SEQUENCE No. (e.g., 1, 2, 3, etc.); […] (e.g., Cells, Incubation, Reagent, etc.); VALUE; DESCRIPTION. 1; Cells; 4 uL; primary human omental fibroblast, black, clear bottom, low base, 1536-well Aurora assay plate. 2; Incubation; 48 hr; 37C. 3; Cells; 3 uL; 1,200 SKOV3ip1-GFP cells. 4; Compounds; 23nL; acoustic dispenser. 5; Incubation; 2 hr; room temperature. 6; Incubation; 16 hr; 37C. 7; Wash; 5 uL; 1x PBS. 8; Fixing; 5 uL; 4% paraformaldehyde (PFA). 9; Incubation; 15 min; room temperature 10; Wash, 5 uL; 1x PBS. 11; Detection; Fluorescence, excitation filter 488 nm, emission filter 509 nm. NOTES (numbers refer to Sequence numbers above) 1. For the 1,536-well format, 40 primary human omental fibroblasts and 400 mesothelial cells were seeded with 0.02 µg fibronectin and 0.02 µg collagen type I in 4 µL of growth media (2.3 mm2; Supplementary Fig. S1A). 2. Assay plates were incubated for 48 hours at 37 C. 3. After incubation, 1,200 SKOV3ip1-GFP were seeded in 3 µL of serum-free media (growth media minus FBS) on top of primary human omental cells. 4. Compounds or controls were added to each well immediately after the addition of the cancer cells. Compounds were screened in four doses (0.36-46 µmol/L), and the plates contained the positive control (Tomatine) in eight doses (0.035-75 µmol/L) and DMSO (equal volume controls) 5 - 6. The plates were incubated at room temperature for 2 hours and then at 37 degrees C for 16 hours. 7 - 10. Following incubation, the media were aspirated and each well washed with PBS (5 µL) and then fixed with 4% paraformaldehyde (PFA; 5 µL). After 15 minutes, the PFA solution was aspirated, PBS (5 µL) was added. 11. The number of GFP-labeled cells analyzed using a fluorescent cytometer TTP LabTech Acumen eX3 using 488 nm excitation filter and 509 nm emission filter. Data was normalized to the DMSO treated for negative and Tomatine treated wells for positive control. REFERENCES: Inglese J, Shamu CE and Guy RK, Reporting data from high throughput screening of small molecule libraries, Nature Chemical Biology, 2007, 3(8): 438-441. doi.org/10.1038/nchembio0807-438. Yasgar A, Shinn P, Jadhav A, Auld DS, Michael S, Zheng W, Austin CP, Inglese J and Simeonov A, Compound Management for Quantitative High-Throughput Screening. J. Assoc. Lab. Auto., 2008, 13: 79-89. doi: 10.1016/j.jala.2007.12.004.

Activity change, negative = inhibition, inactive:
COc1ccc(CNC(=O)c2cccn2-c2nnc(N3CCCC3)s2)c(OC)c1 -1.93%, COc1ccc(C2(CNC(=O)C(=O)Nc3ccccc3C)CCCC2)cc1OC 1.43%, CCCCN(CCCNC(=O)c1cc(Nc2ccccc2OC)nc2ccccc12)c1ccccc1 15.3%, Cc1ccc(S(=O)(=O)c2nc(-c3ccc(F)cc3)oc2N2CCN(c3ccccc3)CC2)cc1 -2.05%, CCN(CC)c1ccc(C2Nc3ccccc3-c3cc(C)nn32)cc1 (centres undefined) 5.88%, Nc1c(C(=O)Nc2ccccc2)sc2nc3c(cc12)CN(Cc1ccccc1)CC3 -1.31%, COc1ccc(NC(=O)c2oc3ccccc3c2NC(=O)C2CCCCC2)c(OC)c1 -12.1%, Cc1cccc(-n2c(=O)c3c4c(sc3n3c(C)nnc23)CCCC4)c1 4.55%, Clc1ccc(-n2c(Cc3ccccc3)nnc2SCc2nc(-c3cccs3)no2)cc1 4.1%, CCOC(=O)c1scc(-c2ccc(C)cc2)c1S(=O)(=O)Nc1cc(OC)ccc1OC -8.78%, CCCCN(C)C(=O)c1ccc2c(c1)N(Cc1cccc(F)c1)C(=O)c1ccccc1S2 -1.87%, CCc1cccc(C)c1NC(=O)C1CCCN1S(=O)(=O)c1cccc2nsnc12 (centres undefined) -0.364%, COC(=O)c1ccc(NC(=O)Cn2cnc3c2c(=O)n(C)c(=O)n3C)cc1 -15%, O=C(Cn1c(=O)c2cccn2c2ccccc21)NCc1ccccc1F -7.79%, CCn1c(=O)c(=O)n(CC)c2cc(S(=O)(=O)Nc3ccc(C)cc3)ccc21 -20.5%, Cc1ccc(C(=O)c2cn(Cc3ccccc3)c3nc(C)ccc3c2=O)cc1 3.53%, Cc1ccc(-n2ncc3c(NCCO)ncnc32)cc1Cl 0.469%, COc1ccc(-c2cc(C(=O)Nc3cccnc3)no2)cc1OC -24.3%, COC(=O)c1cc2oc3ccccc3c2n1CC(=O)Nc1ccc(C)c(F)c1 1.7%, COc1ccc(CNC(=O)Cc2ccc(NC(=O)N3CCSc4ncccc43)cc2)cc1OC 4.56%, Cc1cc(NC(=O)c2cc(-c3ccc(Cl)cc3)on2)n(-c2ccccc2)n1 -1.25%, Cc1cccc(C(=O)N2CCc3cc(CNC(=O)COc4ccc(Cl)cc4)ccc32)c1 -21.2%, CCOc1cccc(C2c3[nH]c4ccccc4c3CCN2C(=O)CSc2ccccc2)c1 (centres undefined) -18.3%, COc1ccc(S(=O)(=O)Nc2cccc(-c3ccc(N4CCC(C)CC4)nn3)c2)c(OC)c1 -1.84%, COc1cc(NC(=O)c2ccc3oc(=O)c(S(=O)(=O)c4ccccc4)cc3c2)cc(OC)c1 11%, COc1c(C)cc(Br)cc1C(=O)Nc1ccc(-c2nc3ncccc3o2)cc1 -28.2%, CCSc1nnc2c(n1)OC(c1cc(OC)c(OC)c(OC)c1)Nc1ccccc1-2 (centres undefined) 2.08%, CCOC(=O)c1c(C)[nH]c(C)c1S(=O)(=O)NCC(=O)Nc1ccc(C)c(N(C)C)c1 207%, CCOc1ccccc1NC(=O)c1ccc2c(c1)CCN2S(=O)(=O)c1ccc(C)cc1 -6.53%, COc1cc2c(=O)c(C(=O)c3ccc(C)c(C)c3)cn(Cc3ccc(F)cc3)c2cc1OC -3.88%, Cc1nc(SCC(=O)Nc2ccccc2C)cc(-c2ccccc2)n1 18%, Cc1ccccc1NC(=O)CSc1cn(CC(=O)N2CCCCCC2)c2ccccc12 15.8%, CCOC(=O)c1c(NC(=O)c2nc(SCC)ncc2Cl)sc2c1CCCC2 -3.34%, Cc1ccccc1Nc1c(-c2ccc(Cl)cc2)nc2c(C)cccn12 0.228%, CC(C)c1ccc(NC(=O)C2CCN(S(=O)(=O)c3cccc4nonc34)CC2)cc1 27.1%, CCC1CN(S(=O)(=O)c2cc(-c3cc(C)no3)ccc2C)c2cc(Cl)ccc2O1 (centres undefined) -8.35%, COc1cc(NS(=O)(=O)c2ccc(NC(=O)c3cccc(F)c3)cc2)nc(OC)n1 13.1%, O=C(Nc1ccc(C(=O)OCc2cc(=O)n3c4c(sc3n2)CCCC4)cc1)c1ccc(F)cc1 1.65%, COc1ccc(S(=O)Cc2ccc(C(=O)N3CCN(c4cccc(C)c4C)CC3)o2)cc1 (centres undefined) -5.19%, Cc1c(C(=O)NCc2ccc(Cl)cc2)sc2nc3n(c(=O)c12)CCCCC3 0.533%, CCc1cccc(C)c1NC(=O)CCS(=O)(=O)c1cc(Br)cc2c1N(C(=O)C1CC1)CC2 5.42%, COc1ccc(C(=O)NCC(c2cccnc2)N2CCN(c3ccccc3)CC2)cc1 (centres undefined) 7.19%, COc1cccc(Cn2c(=O)cc(C)c3c(C)nn(C)c32)c1 -3.95%, COc1cc(NC(=O)CN2C(=O)c3ccccc3Sc3ccc(C(=O)N4CCCC4)cc32)cc(OC)c1 -7.9%, CCOC(=O)c1ccccc1NC(=O)CN1CCCN(Cc2cc(C)ccc2C)S1(=O)=O 7.77%, Cc1ccc(-n2nnc(-c3nc(-c4cccs4)no3)c2N)cc1C 1.81%, COc1ccc(-c2nc(CSc3nncn4c3cc3oc(C)cc34)c(C)o2)cc1 5.46%, Cc1ccccc1NC(=O)c1ccc(F)c(S(=O)(=O)N2CCN(c3ccccc3F)CC2)c1 -10.4%, CCN1CCN(CCCNC(=O)CS(=O)(=O)Cc2nc(-c3cccc(OC)c3)oc2C)CC1 10.1%, CN(CC(=O)NCc1ccccc1)S(=O)(=O)c1ccc2[nH]c3c(c2c1)CCCC3 4.52%, Cn1cnnc1SCC(=O)Nc1ccc(C#N)cc1 2.76%, CCCc1cc(C(=O)Nc2c(C)nn(Cc3c(Cl)cccc3Cl)c2C)no1 -3.48%, Cc1cc(C)c(S(=O)(=O)Nc2ccc(-c3ccc(N4CCCCCC4)nn3)cc2)c(C)c1 -14.2%, O=S(=O)(NCC(c1cccs1)S(=O)(=O)c1ccccc1)c1ccc(F)c(C(F)(F)F)c1 (centres undefined) -20%, COc1ccc(-c2[nH]c(-c3cccc(OC)c3)nc2SCC(=O)NC2CCCC2)cc1 -9.41%, COc1ccccc1N1CCN(c2ncnc3c2cnn3-c2cccc(Cl)c2)CC1 -14.7%, CC(C)(C)C1CCc2c(sc(NC(=O)c3ccc(Cl)cc3)c2C(=O)NCc2ccco2)C1 (centres undefined) 2.2%, CCc1ccccc1NC(=O)C1(C)Cc2ccccc2C(=O)O1 (centres undefined) -14.8%, CC(C)(C)OC(=O)N1CCC(c2c(C(=O)NCCc3ccccc3)cnn2-c2ccc(F)cc2)CC1 -2.14%, O=C(C1CCN(S(=O)(=O)c2ccc(Br)s2)CC1)N1CCN(c2ccccc2)CC1 4.05%, CC(C)[C@H](C(=O)Nc1ccc(C(=O)NO)cc1)c1ccccc1 -24.6%, CCN(CC)S(=O)(=O)c1ccc(C(=O)N2CC(=O)Nc3ccc(F)cc3C2c2ccccc2)cc1 (centres undefined) 1.11%, CCc1ccc(-c2nn(CC(=O)NCc3ccccc3)c3c2cnc2ccc(F)cc23)cc1 -1.77%, CC(=O)N1c2ccc(S(=O)(=O)NCC3CCC(C(=O)Nc4cc(C)ccc4C)CC3)cc2CC1C (centres undefined) -21.9%, COc1cc(NC(=O)c2c(C)oc3c2C2=NCCN2C=N3)cc(OC)c1OC -18.9%, CC(=O)Nc1ccc2nc(SCCOc3cc(C)cc(C)c3)sc2c1 -7.94%, CN(C)c1ccc(/C=C(\C#N)c2nc(-c3ccc(Cl)c(Cl)c3)cs2)cc1 3.95%

outcome, inactive:
Cc1ccc(NC(=O)C2CCCN(S(=O)(=O)c3c(C)noc3C)C2)cc1 (centres undefined), Cc1cc(C)c(/C=C/c2onc(C)c2S(=O)(=O)N2CCC(C(=O)NCCc3ccccc3)CC2)c(C)c1, CCOc1cc(C#N)c(-n2nnc3c(sc4nc(C)cc(C)c43)c2=O)cc1OCC, Cc1cccc(N(CC(=O)NCCSCc2ccccc2)S(=O)(=O)c2ccccc2)c1C, CCCC(=O)N1CCN(c2nc3ccc(F)cc3s2)CC1, Cc1nc(N2CCCC2)c2c(C(=O)N3CCN(c4cc(Cl)ccc4C)CC3)c(C)oc2n1, COc1cc(OC)c(NC(=O)c2cc3c(=O)oc4ccc(C)cc4c3s2)cc1Cl, CCOc1ccc(NC(=O)Cn2c(=O)n(-c3cccc(Cl)c3)c(=O)c3c2c2cc(C)ccc2n3C)cc1, COc1ccc(NC(=O)Cn2c(=O)n(CCc3ccccc3)c(=O)c3c4c(sc32)CCCC4)cc1, Cc1ccc(N2C(=O)CSC23C(=O)N(Cc2ccccc2F)c2ccccc23)cc1F (centres undefined), Cc1ccccc1NC(=O)c1ccc2[nH]c(C)c(C)c2c1, COc1cc(NC(=O)CC2C(=O)OCCN2Cc2ccccc2)cc(OC)c1 (centres undefined), CCC(CC)c1nn2c(=O)cc(COc3ccc(NC(=O)c4ccccc4C)cc3)nc2s1, CCc1nn2c(-c3ccccc3OC)ccnc2c1-c1ccccc1, O=C(CCCCn1c(=O)c2ccccc2n(CC(=O)Nc2cccc(C(F)(F)F)c2)c1=O)NCc1ccc2c(c1)OCO2, Cc1c(Cl)cccc1NC(=O)Cn1c(=O)n(Cc2ccco2)c(=O)c2sc3ccccc3c21, CCCc1nn2c(=O)cc(COC(=O)c3cccc(NC(=O)c4cccs4)c3)nc2s1, COc1ccc(OC)c(CCNC(=O)c2ccc3c(c2)c(C)c(C)n3Cc2ccccc2)c1, O=C(NCCc1ccccc1)C(=O)NCC(c1ccco1)S(=O)(=O)c1cccs1 (centres undefined), Cc1ccc(Cl)cc1NC(=O)COC(=O)CC(C)(C)CC1=NS(=O)(=O)c2ccccc2N1, Cc1oc2ncnc(N3CCCCC3)c2c1C(=O)NCC1CCN(Cc2cccc(F)c2)CC1, CCOC(=O)c1[nH]c2ccccc2c1NC(=O)c1ccccc1F, COC(=O)c1ccc(OCC2c3cc(OC)c(OC)cc3CCN2C(=O)Cc2ccccc2)cc1 (centres undefined), COc1ccc(-c2cn3nc(N4CCCC(C(=O)Nc5cc(C)cc(C)c5)C4)sc3n2)cc1 (centres undefined), COc1ccc(OCC(=O)NCc2ccc3c(c2)CCN3C(=O)c2ccc(F)cc2)cc1, COc1ccc(CCN2C(=O)NC(NS(=O)(=O)c3ccc(NC(C)=O)cc3)(C(F)(F)F)C2=O)cc1OC (centres undefined), COc1cc(NC(=O)COCc2cc(-c3ccc4c(c3)OCO4)on2)cc(OC)c1
